# In a compilation of properties of binary mixtures (doi:10.1016/j.molliq.2015.08.019):
# The densities may have been worked out from excess volumes.
# Test: xn = mol fraction of the nth substance listed
# Conditions: 100 kPa
smiles,measurement,setting,value
CN1CCCC1=O + CCCC[n+]1ccn(C)c1.F[B-](F)(F)F,mass density,"298.15 K, x1 = 1",1027.1 kg/m3
same,mass density,"303.15 K, x1 = 1",1022.6 kg/m3
same,mass density,"308.15 K, x1 = 1",1018.2 kg/m3
same,mass density,"313.15 K, x1 = 1",1013.7 kg/m3
same,mass density,"318.15 K, x1 = 1",1009.3 kg/m3
CCCC[n+]1ccn(C)c1.F[B-](F)(F)F + CN1CCCC1=O,mass density,"298.15 K, x2 = 0",1198.8 kg/m3
same,mass density,"298.15 K, x2 = 0.2114",1178.8 kg/m3
same,mass density,"298.15 K, x2 = 0.3061",1168.9 kg/m3
same,mass density,"298.15 K, x2 = 0.4422",1151.9 kg/m3
same,mass density,"298.15 K, x2 = 0.5097",1142.2 kg/m3
same,mass density,"298.15 K, x2 = 0.6155",1125.2 kg/m3
same,mass density,"298.15 K, x2 = 0.7054",1108.7 kg/m3
same,mass density,"298.15 K, x2 = 0.8025",1088.3 kg/m3
same,mass density,"298.15 K, x2 = 0.9025",1061.1 kg/m3
same,mass density,"303.15 K, x2 = 0",1195.2 kg/m3
same,mass density,"303.15 K, x2 = 0.108",1184.8 kg/m3
same,mass density,"303.15 K, x2 = 0.2114",1175.1 kg/m3
same,mass density,"303.15 K, x2 = 0.3061",1165.3 kg/m3
same,mass density,"303.15 K, x2 = 0.4422",1148.2 kg/m3
same,mass density,"303.15 K, x2 = 0.5097",1138.3 kg/m3
same,mass density,"303.15 K, x2 = 0.6155",1121.3 kg/m3
same,mass density,"303.15 K, x2 = 0.7054",1104.7 kg/m3
same,mass density,"303.15 K, x2 = 0.9025",1056.8 kg/m3
same,mass density,"308.15 K, x2 = 0",1191.6 kg/m3
same,mass density,"308.15 K, x2 = 0.2114",1171.4 kg/m3
same,mass density,"308.15 K, x2 = 0.4422",1144.3 kg/m3
same,mass density,"308.15 K, x2 = 0.5097",1134.5 kg/m3
same,mass density,"308.15 K, x2 = 0.6155",1117.3 kg/m3
same,mass density,"308.15 K, x2 = 0.8025",1080.1 kg/m3
same,mass density,"308.15 K, x2 = 0.9025",1052.6 kg/m3
same,mass density,"313.15 K, x2 = 0",1188 kg/m3
same,mass density,"313.15 K, x2 = 0.108",1177.6 kg/m3
same,mass density,"313.15 K, x2 = 0.3061",1157.9 kg/m3
same,mass density,"313.15 K, x2 = 0.4422",1140.6 kg/m3
same,mass density,"313.15 K, x2 = 0.5097",1130.8 kg/m3
same,mass density,"313.15 K, x2 = 0.7054",1096.7 kg/m3
same,mass density,"313.15 K, x2 = 0.8025",1076 kg/m3
same,mass density,"318.15 K, x2 = 0",1184.5 kg/m3
same,mass density,"318.15 K, x2 = 0.108",1174 kg/m3
same,mass density,"318.15 K, x2 = 0.3061",1154.2 kg/m3
same,mass density,"318.15 K, x2 = 0.4422",1136.8 kg/m3
same,mass density,"318.15 K, x2 = 0.5097",1126.9 kg/m3
same,mass density,"318.15 K, x2 = 0.6155",1109.5 kg/m3
same,mass density,"318.15 K, x2 = 0.7054",1092.7 kg/m3
same,mass density,"318.15 K, x2 = 0.8025",1071.9 kg/m3
same,mass density,"318.15 K, x2 = 0.9025",1044.1 kg/m3
same,mass density,"323.15 K, x2 = 0",1181 kg/m3
same,mass density,"323.15 K, x2 = 0.2114",1160.6 kg/m3
same,mass density,"323.15 K, x2 = 0.3061",1150.5 kg/m3
same,mass density,"323.15 K, x2 = 0.4422",1133.1 kg/m3
same,mass density,"323.15 K, x2 = 0.5097",1123.2 kg/m3
same,mass density,"323.15 K, x2 = 0.6155",1105.6 kg/m3
same,mass density,"323.15 K, x2 = 0.7054",1088.7 kg/m3
same,mass density,"323.15 K, x2 = 0.8025",1067.8 kg/m3
same,mass density,"323.15 K, x2 = 0.9025",1039.8 kg/m3
